In PubChem BioAssay AID485344 (National Center for Advancing Translational Sciences (NCATS), 2010):
Among all 340,000 compounds or so, about 6,900 (2%) were called active. Rule as the data show it: active = inhibition above about 30%; inactive = below that, where a call was filed. The list shows a part of the results, in another mix than the full data. Entries without a call were filed so in the source.

target: D(2) dopamine receptor (Homo sapiens) (UniProt P14416); test: HTS Assay for Allosteric Antagonists of the Human D2 Dopamine Receptor: Primary Screen for Antagonists; conditions: HEK293 TREx D2 cells, calcium flux, dopamine EC80; at 10 µM; stronger effect = higher value; also: 0% is about no effect
UniProt P14416, sequence (P14416 whole entry, looked up): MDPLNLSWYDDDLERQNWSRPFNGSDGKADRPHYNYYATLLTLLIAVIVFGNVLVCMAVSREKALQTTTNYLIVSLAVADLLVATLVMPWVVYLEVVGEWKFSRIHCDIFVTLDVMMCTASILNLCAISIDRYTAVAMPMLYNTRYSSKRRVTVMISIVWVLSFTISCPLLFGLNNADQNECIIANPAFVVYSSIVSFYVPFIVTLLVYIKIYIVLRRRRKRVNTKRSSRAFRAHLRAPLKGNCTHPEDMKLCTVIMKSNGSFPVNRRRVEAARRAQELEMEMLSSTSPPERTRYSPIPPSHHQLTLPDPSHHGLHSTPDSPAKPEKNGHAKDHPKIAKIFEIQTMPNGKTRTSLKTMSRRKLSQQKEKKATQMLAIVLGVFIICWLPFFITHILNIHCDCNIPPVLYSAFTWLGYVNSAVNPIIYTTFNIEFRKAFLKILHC
In short: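 In this primary screen, negative modulation is detected by tracking calcium flux after an EC80 dopamine challenge in inducible HEK293 T-REx D2 cells preexposed to test compound for 180 s.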

First: CC(C)(C)c1ccc(C(=O)N(Cc2ccc(F)cc2)Cc2ccco2)cc1
Second: CCc1ccc(CN(Cc2ccco2)c2cnc(S(C)(=O)=O)nc2C(=O)Nc2cccc(C)c2)cc1
The inhibition of the first is higher: 13% for the first, -8.9% for the second.

First: O=C(Cn1ncc2c(=O)oc3ccccc3c21)N1CCN(c2ccc(Cl)cc2)CC1
Second: Cc1ccc(N2CCN(S(=O)(=O)c3ccc(Cl)c4ccccc34)CC2)c(C)c1
The inhibition of the first is higher: 25.2% for the first, 4.5% for the second.

Compared with `COc1cccc(CSc2nc(-c3ccccc3F)nc3c2Cc2c(CO)cnc(C)c2O3)c1`, `COc1ccc(CNC(=O)CSc2nnc(C)c3c(C)n(-c4ccccc4)nc23)c(OC)c1` is lower in inhibition: 9.15% for the first, 2.18% for the second.

First: COc1ccc(-n2nc3c(N4CCC(C(=O)NCCc5ccccc5)CC4)nnc(C)c3c2C)cc1
Second: CCc1ccc2ncc3c(-c4ccc(C)cc4)nn(CC(=O)NCc4ccccc4)c3c2c1
The inhibition of the first is higher: 8.35% for the first, 3.11% for the second.

First: COCCCNC(=O)CCCn1c(=O)c2cccn2c2ccccc21
Second: CCCNC(=O)c1ccc(Cn2c(=O)c3cccn3c3cccnc32)cc1
The inhibition of the first is higher: 18.7% for the first, -7.51% for the second.

Going from `COc1ccccc1CNC(=O)CCC1N=C2c3ccccc3N=C(SCc3ccc(Cl)cc3)N2C1=O` (configuration not stated) to `COc1ccccc1CNc1nc(-c2ccco2)nn1S(=O)(=O)c1ccc2ccccc2c1`, the inhibition falls from -4.47% to -7.71%.

Compared with `O=C1CCCc2cc(S(=O)(=O)NCC3CCC(C(=O)NCc4ccc(F)cc4)CC3)ccc2N1` (configuration not stated), `CNC(=O)C1CCC(Cn2c(=O)c3sccc3n(CC(=O)NCc3ccccc3)c2=O)CC1` (configuration not stated) is higher in inhibition: -1.41% for the first, 13.1% for the second.

Going from `O=C(Nc1cccc(C(F)(F)F)c1)c1cccc(C(=O)Nc2cccc(C(F)(F)F)c2)c1` to `Cc1cccc(C(=O)Nc2c(-c3ccccc3)nc3cc(C)ccn23)c1`, the inhibition rises from -3.09% to 11.1%.

Compared with `CCOC(=O)c1c(C)c(-c2ccccc2)n(CC(=O)Nc2cc(C)cc(C)c2)c1C`, `CCOc1sc2nc(C)n(CC(=O)Nc3cccc(C)c3)c(=O)c2c1C` is lower in inhibition: 13.2% for the first, -14.9% for the second.

First: Cc1ccc(CNC(=O)Cc2ccc(NC(=O)N3CCSc4ncccc43)cc2)cc1
Second: O=C(Cn1c(SCC(=O)Nc2ccc(F)cc2)nc2ccccc21)NCc1ccc(F)cc1
The inhibition of the first is higher: 2.76% for the first, 0.61% for the second.

Compared with `CCc1ccccc1NC(=O)c1ccc2c(c1)nnn2C1CCCC1`, `CCOc1ccccc1NC(=O)CN1C(=O)COc2ccc(S(=O)(=O)NC3CCCC3)cc21` is lower in inhibition: 8.24% for the first, 6.32% for the second.

First: NC(=O)c1nc(-c2ccc(F)c(F)c2)nc2c1[nH]c(=O)n2-c1cccc(Cl)c1
Second: N#Cc1ccc(C(=O)Nc2cc3nn(-c4ccccc4)nc3cc2Cl)c(F)c1
The inhibition of the first is lower: 0.623% for the first, 26.6% for the second.

Compared with `CCN1CCN(CCCNC(=O)c2cnn(-c3ccc(C)cc3C)c2C2CCN(C(=O)OC(C)(C)C)CC2)CC1`, `CN1CCN(C(=O)c2cnn(-c3ccc(F)cc3F)c2C2CCN(C(=O)OC(C)(C)C)CC2)CC1` is lower in inhibition: -1.13% for the first, -7.73% for the second.

Going from `O=S(=O)(c1ccc(Br)cc1)c1nnn2c1nc(N1CCOCC1)c1sccc12` to `COc1ccc(-c2nc3scc(CCNS(=O)(=O)c4ccc(C)cc4)n3n2)cc1`, the inhibition falls from -2.89% to -10.4%.

First: Cc1ccc(C(=O)Nc2ccc3nc(SCC(=O)N4CCCc5ccccc54)sc3c2)cc1
Second: Cn1c(=NC(=O)c2ccc(S(=O)(=O)N3CCCc4ccccc43)cc2)sc2cc(F)ccc21
The inhibition of the first is lower: 0.679% for the first, 0.923% for the second.

Compared with `O=C(COC(=O)c1cc(-c2ccccc2)nc2ccccc12)c1ccc(Br)cc1`, `Cc1ccccc1NC(=O)Cn1nc(-c2ccccc2)nc(Cc2ccccc2)c1=O` is lower in inhibition: 2.03% for the first, 1.47% for the second.

First: CSc1nc2sc3c(c2c(=O)n1Cc1ccccc1)CCC(C(C)(C)C)C3 (configuration not stated)
Second: Cc1ccccc1C(=O)Nc1sc2c(c1C(=O)NCc1ccco1)CCC(C(C)(C)C)C2 (configuration not stated)
The inhibition of the first is lower: -3.24% for the first, 6.15% for the second.

Compared with `Cc1c(C(=O)NCc2cccc(Cl)c2)sc2nc3n(c(=O)c12)CCC3`, `CCN1CCc2nc3sc(C(=O)Nc4cccc(Cl)c4C)c(N)c3cc2C1` is lower in inhibition: 4.45% for the first, -1.42% for the second.

Going from `Cc1cn2c(=O)cc(COc3ccccc3NC(=O)c3ccco3)nc2s1` to `COC(=O)c1ccccc1NC(=O)c1c(C)oc2ncn(C)c(=O)c12`, the inhibition rises from -16.3% to 3.39%.

First: Cc1ccc(S(=O)(=O)NC2(C(F)(F)F)C(=O)Nc3c2c(=O)[nH]c(=O)n3-c2ccccc2)cc1 (configuration not stated)
Second: Cc1ccc2c(c1)c1c(c(=O)n(-c3ccccc3)c(=O)n1Cc1ccccc1C)n2C
The inhibition of the first is higher: 10.5% for the first, 0.743% for the second.

Compared with `COc1ccc(OCc2nc3ccccc3n2Cc2ccccc2Cl)cc1`, `O=C(CSc1nc2ccccc2n1Cc1cccc(F)c1)NCc1ccccc1` is higher in inhibition: 0.768% for the first, 12.3% for the second.

Compared with `CCCCC(=O)N(c1ccc2oc(C)c(C(C)=O)c2c1)S(=O)(=O)c1ccc(F)cc1C`, `CN(CC(=O)Nc1cccc(F)c1)S(=O)(=O)c1ccc2c(c1)n(C)c(=O)c(=O)n2C` is lower in inhibition: 15.2% for the first, -1.97% for the second.

Going from `CCOc1cc(C(=O)OCc2cc(=O)n3nc(CC)sc3n2)cc(OCC)c1OCC` to `CCOC(=O)c1sc2ncn(CC(=O)Nc3ccc(OC)c(Cl)c3)c(=O)c2c1C`, the inhibition rises from -10.5% to 4.8%.

Compared with `CC1CCC(C(=O)NC(C(=O)OCC(=O)c2ccccc2)C(C)C)CC1` (configuration not stated), `CCc1cnc2c(c1SCC(=O)c1ccccc1)c(=O)n(C)c(=O)n2C` is lower in inhibition: -5.91% for the first, -25.1% for the second.

Compared with `CCC1=Nc2cc(C(=O)NCCCOC)ccc2Sc2ccc(Br)cc21`, `COCCCNC(=O)c1oc2c(c1C)-c1nn(Cc3ccccc3Cl)cc1CC2` is higher in inhibition: -7.24% for the first, 3.47% for the second.

Going from `CC(C)CC(=O)Nc1cccc(-c2nc3ccccc3[nH]2)c1` to `O=C(CC(c1cccs1)N1Cc2ccccc2C1=O)Nc1ccc(F)cc1` (configuration not stated), the inhibition falls from 4.2% to -4.08%.

First: Cc1ccc(SCCNC(=O)CN(c2ccccc2)S(=O)(=O)N(C)C)cc1
Second: COc1ccc(S(=O)(=O)N(CC(=O)Nc2ccccc2Br)Cc2ccccc2)cc1
The inhibition of the first is higher: 10.8% for the first, 5.92% for the second.

Going from `CCOC(=O)COc1ccc([N+](=O)[O-])cc1-c1ccnc2cc(-c3ccc(Cl)cc3)nn12` to `COc1ccc(NC(=O)C(=O)NCCc2csc(-c3ccc(Cl)cc3)n2)cc1OC`, the inhibition rises from 5% to 11.7%.

Compared with `CN(C)c1ccc(C(CNC(=O)c2ccccc2)N2CCc3ccccc32)cc1` (configuration not stated), `CCC(=O)N1c2ccccc2CC1C(=O)NCc1ccc(CC)cc1` (configuration not stated) is higher in inhibition: -5.94% for the first, 14.7% for the second.

Compared with `COc1ccccc1NC(=O)C(=O)NCC(c1ccc2c(c1)OCO2)N1CCN(C)CC1` (configuration not stated), `CC(C)CCNC(=O)Cn1nc(N2CCN(c3ccccc3)CC2)ccc1=O` is lower in inhibition: 3.31% for the first, 0.484% for the second.

Going from `CCN1CCN(c2ncc3c(n2)CCN(Cc2cc(F)cc(F)c2)C3)CC1` to `CCOc1cc2sc(N3CCC(C(=O)Nc4ccc(C)cc4C)CC3)nc2cc1Br`, the inhibition rises from -2.55% to 9.35%.

Going from `CC(C)OCCCn1c(=O)c2ccccc2n2c(-c3ccc(F)cc3)nnc12` to `Cc1ccccc1Cn1c2ccccc2c2cnn(CC(=O)NC3CCCCCC3)c(=O)c21`, the inhibition rises from -18.4% to -8.03%.

Compared with `Cc1ccc(Cl)cc1NC(=O)c1cnc(N2CCCCC2)c2ccccc12`, `O=C(c1cc2c(Cl)nc3ccccc3c2s1)N1CCCCC1` is higher in inhibition: -12.7% for the first, 12% for the second.

First: CCOC(=O)C1CCN(S(=O)(=O)c2cc(Br)cc3c2N(C(=O)CC)CC3)CC1
Second: COc1cc(CNC(=O)c2cc3n(n2)CCCN(Cc2cccc(F)c2)C3=O)cc(OC)c1OC
The inhibition of the first is lower: 4.4% for the first, 9.84% for the second.

First: CCCC(=O)NCC1(N(C)C)CCCCC1
Second: COc1ccc(NC(=O)Nc2nnc(N3CCCC3)s2)cc1
The inhibition of the first is lower: -21.9% for the first, 9.45% for the second.

Compared with `CN1CCN(C(=O)c2ccc3c(c2)N(Cc2ccc(C(F)(F)F)cc2)C(=O)c2ccccc2S3)CC1`, `CC(=O)c1cccc(NC(=O)CSc2ncc3c(n2)-c2cc(Cl)ccc2N(Cc2ccccc2)S3(=O)=O)c1` is higher in inhibition: -17.3% for the first, -4.8% for the second.

First: COc1ccc(OC)c(C2C(C(=O)Nc3ccc(C)cc3)=C(C)Nc3nnnn32)c1 (configuration not stated)
Second: Cc1ccc(NC(=O)c2c(C)oc3ccc(O)c(CN4CCOCC4)c23)cc1
The inhibition of the first is higher: 3.61% for the first, -0.733% for the second.

Going from `CSc1cccc(NC(=O)c2cc3c(COC(C)=O)cnc(C)c3oc2=O)c1` to `COc1ccc(Cn2ccc3nc(C)c(C(=O)NCc4ccc(SC)cc4)cc3c2=O)cc1`, the inhibition falls from -9.2% to -13.2%.

First: COc1ccc(S(=O)(=O)NCc2nc(-c3ccccc3)no2)cc1
Second: Cc1ccc(CNS(=O)(=O)c2cnc(N)nc2)cc1
The inhibition of the first is higher: 12.4% for the first, -1.18% for the second.

`CC(C)c1ccc(N(C(=O)CNC(=O)c2ccco2)C(C(=O)NC2CCCC2)c2ccncc2)cc1` (configuration not stated) was tested, and the inhibition was active: 31.4%.
For `CCc1ccccc1NC(=S)NC1CC2CCCC(C1)N2Cc1cccs1` (configuration not stated), the inhibition was active: 71.7%.
For `COc1cccc(C(=O)NCCCNC(=O)c2cccnc2)c1`, the inhibition was active: 38.9%.
For `O=C(c1cc(Br)ccc1OC(F)F)N1CCN2CCCC2C1` (configuration not stated), the inhibition was active: 32.8%.
In the case of `COc1ccc(CCN(C)C(=O)C2CCN(Cc3ccc(C)cc3)CC2)cc1OC`, the inhibition is reported as active: 47.1%.
For `CCN1CCCC(NC(=O)c2cc([N+](=O)[O-])ccc2OC)C1` (configuration not stated), the inhibition was active: 38.5%.
`Cc1ccc(C2=NN(C(=O)CSc3nnnn3C)C(c3ccco3)C2)cc1` (configuration not stated) was tested, and the inhibition was active: 42.8%.
For `CCCCc1ccc(NC(=S)NCCc2ccc(F)cc2)cc1`, the inhibition was active: 30.5%.
`Cc1cccc(N2CCN(Cc3ccoc3)CC2)c1C` was tested, and the inhibition was active: 67%.
`C=C(C)C(=O)Nc1nnc(-c2ccccc2C)s1` was tested, and the inhibition was active: 52.4%.
In the case of `CCOC(=O)c1ccc[n+](CC(=O)Nc2cc(C(F)(F)F)ccc2Cl)c1`, the inhibition is reported as active: 52.5%.
`Cn1c(=O)c2c(nc(N3CCN(c4ccc([N+](=O)[O-])cc4)CC3)n2C)n(C)c1=O` was tested, and the inhibition was active: 33.5%.
`Cn1cccc1-c1cc(C(=O)N/N=C/c2ccc(F)cc2)[nH]n1` was tested, and the inhibition was active: 60.6%.
`Cc1cc(/C=C2\SC(=Nc3ccc(F)cc3)NC2=O)c(C)n1-c1ccc(S(N)(=O)=O)cc1` was tested, and the inhibition was active: 38.4%.
`COc1ccc(C(CNC(=O)c2oc3c(Cl)cccc3c2C)N2CCCC2)cc1` (configuration not stated) was tested, and the inhibition was active: 39.1%.
`Cc1ccc(C(=O)O/N=C(\N)c2ccc(Br)cc2)cc1` was tested, and the inhibition was active: 33.6%.
In the case of `CSc1ccc(/C=C(\C(=O)O)c2ccc(S(=O)(=O)N3CCCC3)s2)cc1`, the inhibition is reported as active: 35.5%.
For `CCCCNC(=O)NCC(=O)Nc1ccc(F)c(F)c1`, the inhibition was active: 40.1%.
For `Cc1ccc(-c2cnc(-c3ccncc3)o2)cc1`, the inhibition was active: 32.3%.
